Laboratory results reported in PubChem BioAssay AID504332 (National Center for Advancing Translational Sciences (NCATS), 2011).
About 31,000 (8.9%) of roughly 350,000 compounds were called active. Inconclusive results (about 15%) are left out. The call rests on the fitted dose curve; in most records, active means well fitted inhibition curve with a large enough effect; inconclusive means small, poorly fitted or top-dose-only effect; inactive means no such curve, though single readings can be large or run the other way. The source holds several records for some structures; these can differ, active in one and inactive in another. Certain results were filed several times, with different values. The other results are left out here. There may be further records. Results that share an entry repeat one measurement across runs, samples, wells, individuals or studies.
Further: nearly all actives have a fitted effect of over 75% in size.
Potency means the concentration at half of the fitted maximal effect.

What follows are compounds tested against Histone-lysine N-methyltransferase EHMT2 (Homo sapiens) (UniProt Q96KQ7) (assay: qHTS Assay for Inhibitors of Histone Lysine Methyltransferase G9a). Conditions: G9a H3K9 monomethylation, AlphaScreen, 2 h; series mostly up to 12.7 µM.
Chain of UniProt Q96KQ7 (Q96KQ7 whole entry, looked up): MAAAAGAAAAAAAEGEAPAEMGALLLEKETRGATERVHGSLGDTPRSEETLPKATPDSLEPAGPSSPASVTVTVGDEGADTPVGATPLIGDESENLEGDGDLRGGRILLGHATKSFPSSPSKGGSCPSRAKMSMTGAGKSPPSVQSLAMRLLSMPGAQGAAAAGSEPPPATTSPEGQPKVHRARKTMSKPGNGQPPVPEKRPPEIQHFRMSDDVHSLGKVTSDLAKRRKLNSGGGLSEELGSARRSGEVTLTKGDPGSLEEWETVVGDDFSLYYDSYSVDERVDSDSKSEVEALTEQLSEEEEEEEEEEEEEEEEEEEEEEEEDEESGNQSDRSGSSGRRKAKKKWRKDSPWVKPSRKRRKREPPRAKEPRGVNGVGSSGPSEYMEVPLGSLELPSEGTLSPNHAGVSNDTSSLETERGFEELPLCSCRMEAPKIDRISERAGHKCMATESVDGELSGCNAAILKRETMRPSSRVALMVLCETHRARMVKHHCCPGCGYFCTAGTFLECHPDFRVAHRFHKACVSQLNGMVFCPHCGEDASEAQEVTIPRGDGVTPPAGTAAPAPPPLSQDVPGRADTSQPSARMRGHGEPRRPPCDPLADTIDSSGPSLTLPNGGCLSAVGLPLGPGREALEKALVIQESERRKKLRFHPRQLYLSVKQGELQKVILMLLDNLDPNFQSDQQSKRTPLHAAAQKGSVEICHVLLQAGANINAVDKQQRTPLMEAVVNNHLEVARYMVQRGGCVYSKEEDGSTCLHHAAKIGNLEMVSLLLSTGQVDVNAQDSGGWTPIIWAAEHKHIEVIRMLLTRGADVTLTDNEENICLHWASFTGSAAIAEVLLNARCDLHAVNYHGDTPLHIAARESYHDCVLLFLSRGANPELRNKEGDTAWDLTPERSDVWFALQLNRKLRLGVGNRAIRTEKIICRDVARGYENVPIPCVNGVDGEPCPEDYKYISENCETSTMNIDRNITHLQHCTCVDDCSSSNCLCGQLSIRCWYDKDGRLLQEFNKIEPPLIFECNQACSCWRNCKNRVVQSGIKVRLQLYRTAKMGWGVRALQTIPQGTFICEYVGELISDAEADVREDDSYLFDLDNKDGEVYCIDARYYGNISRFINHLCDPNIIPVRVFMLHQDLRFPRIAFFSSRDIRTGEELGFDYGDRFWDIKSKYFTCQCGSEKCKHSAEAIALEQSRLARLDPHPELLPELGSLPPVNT
In the case of `CC[C@@H]1Cc2cc(O)ccc2C2=C1c1ccc(O)cc1C[C@H]2CC`, the Potency is reported as “active: 20 µM, 14.1 µM, 23.8 µM and inactive [separate samples]”.
